Here are results for 22 molecules from publication PMC12136788.

Some of the results follow.

T1: UNK ZnF1-3 (human, UniProt Q9C0B0 31-174)
T1 sequence: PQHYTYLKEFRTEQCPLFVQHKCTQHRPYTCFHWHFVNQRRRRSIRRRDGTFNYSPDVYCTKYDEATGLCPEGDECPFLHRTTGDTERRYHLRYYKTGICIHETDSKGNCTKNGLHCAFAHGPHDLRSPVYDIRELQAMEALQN

B1: chr2:5814250:5814251:-_ENSMUSG00000025816_ENSMUST00000102981|mus_hu|mus_mus_mus_hu_True|1_38 (ssRNA)
RNA: GGGAGUUCUACAGUCCGACGAUCUUCCUUUCCGGUUUCUGAAUUUCUGGUAGAACUGCACAGAAUGGUUUGAUAACUUCUAAAAAUUUGAUGCCCAUGGCGGCGGCUGGGGAGGCCCAGGGGGAAACCGCGGCCUCGCAGCUGCAACAGAGGAUUGAGCAUCA
B2: chr7:44244176:44244177:+_ENSG00000106636_ENST00000223369|hu_mus|hu_hu_hu_mus_False|48_58 (ssRNA)
RNA: GGGAGUUCUACAGUCCGACGAUCACUGUCGCUCCGGACGUAGACAUGGCAAAGAUACUCUUGUUCUUUGACAGAAGCUCUAGUGCCUUUCGAUGAGCGUUCCACAAUCAGUUGACUUGUAAAGGUCAUGAAUUCCUGCACACUCAACAGAGGAUUGAGCAUCA
B3: chr2:135777783:135777784:+_ENSMUSG00000039943_ENSMUST00000110109|mus_mus|FALSE|FALSE (ssRNA)
RNA: GGGAGUUCUACAGUCCGACGAUCGAUGGCCUGGAUUACAUCCUUAAAAAGGAUGUCUGUACACAUUGCUUUUCCGUGAGUUAUUAUCGGUUCCUGAUCUUCACCUUUUCCAUCCCAACAGUCAAGUUCAACACACCUGCAACCCAACAGAGGAUUGAGCAUCA
B4: chr18:25268621:25268622:+_ENSMUSG00000034295_ENSMUST00000037097|mus_mus|FALSE|FALSE (ssRNA)
RNA: GGGAGUUCUACAGUCCGACGAUCACUGAUGGAAGAGAGUGUGAGAAGGAACUGCUCUGCACUGCCCAACGGCACUUCCGGGUUAGCCAGCUGAGCCUCCUGGAUUUUCUGCUUCUCCUCUUCAGUUGGAAUCAUGGUCAGAAUCAACAGAGGAUUGAGCAUCA
B5: chr15:42481402:42481403:-_ENSG00000166887_ENST00000318006|hu_hu|motif|central (ssRNA)
RNA: GGGAGUUCUACAGUCCGACGAUCCUUUGAAACCGUAGUGAUUUGUUGAAAUGUCAAUAGGUCAUGGACAUAAAUGUUAUUUUCGGACAAGCUGACCAGAAUCUUAAACUGGGAAACCACAUGGAUCUGCUGAAUCUUUUUGGACAACAGAGGAUUGAGCAUCA
B6: chr15:31432613:31432614:-_ENSMUSG00000039100_ENSMUST00000090227|mus_mus|FALSE|FALSE (ssRNA)
RNA: GGGAGUUCUACAGUCCGACGAUCAUAAAUUGGUGUGAAAGCAAAUCUGUGCUUGCAUAAUUCACAGUAUUCUUUCCGACUAUGUUUCAACCACUGAACUAAGCAUUCUUGAUGAAUAAAUUUAAUACUGCCAGUACAUACACACAACAGAGGAUUGAGCAUCA
B7: 74381551_74381671_2928_3pUTR_ENSG00000114978_ENST00000396049|human|control|control (ssRNA)
RNA: GGGAGUUCUACAGUCCGACGAUCUCUUGAGUCUCAAAAUACCAACACAUCUCUGAUUUAUGUCCCAUUUAUAAGCUGCCUUUACUACUGUCCUGACAUGUGAUCGUCUUUCAUUUGCUUUGGAGCUUAGUGGUGAAGAGAGGGCAACAGAGGAUUGAGCAUCA
B8: chr1:46159212:46159213:+_ENSG00000159596_ENST00000372025|hu_mus|hu_hu_hu_mus_True|1_108 (ssRNA)
RNA: GGGAGUUCUACAGUCCGACGAUCUCUGAUCCCACCCAAGAAAGCUAGGAAACCGGCUCCAUAAGCCAUCUGAGUGAAAGCUAGGACGGGGAUAUAAGACUUUGUUAUUACCAUGAGAAGUGGGGGAGCAGUAAAGGGGAUUAGCAACAGAGGAUUGAGCAUCA
B9: chr12:21919153:21919154:-_ENSG00000121361_ENST00000240662|hu_hu|FALSE|FALSE (ssRNA)
RNA: GGGAGUUCUACAGUCCGACGAUCAUACAGGGGACUGCGCUUGUCAAUCACGUGGCAGAUGAUCAAAGGGGCCACCAGAAAAAUGUUAUUGCUCUCGAUUGGGUUAUCAACAGGAAUGUCCAGUUGGUGAAUAGGAACCACCUCCAACAGAGGAUUGAGCAUCA
B10: chr4:40680069:40680070:+_ENSMUSG00000028410_ENSMUST00000030118|mus_mus|FALSE|FALSE (ssRNA)
RNA: GGGAGUUCUACAGUCCGACGAUCAGUCAGAGCUUUUAUAUUUGUGUUUAUUCUUCAUUUAACUUUUUUUAAAACACUACUAUAGUUGAAUAUUAAAACAAAAACAAUAGCCAAGUAGUGAGCUUAUUAUGAUUACAGUCCUUCCAACAGAGGAUUGAGCAUCA
B11: chr5:144471560:144471561:-_ENSMUSG00000051306_ENSMUST00000053287|mus_mus|FALSE|FALSE (ssRNA)
RNA: GGGAGUUCUACAGUCCGACGAUCAGACUUCAAUAUCAUAUUGUCGAGACGAGACACAGUAUAAAAAGUGUUAGGUAAAAAAAACAUACUGUAGGCUUUACAAAUAAUGUCUGGAUUAUACAUUCAUAAUGCAAAUACUCAUCACAACAGAGGAUUGAGCAUCA
B12: chr3:100058692:100058693:+_ENSG00000114021_ENST00000480073|hu_hu|FALSE|FALSE (ssRNA)
RNA: GGGAGUUCUACAGUCCGACGAUCAUAUUCAGGAAAAUAUUUCGCUCCAUAUGGAGAAUUAAAGCAUUCCGGCAAAGAAACUAUUUUGGCUCCUUGCGUUGCUGCCUCCCGGAUGAAGCUACAAGCGCGAGUGACGUUAUCUGACAACAGAGGAUUGAGCAUCA
B13: 52759336_52769516_3469_CDS_ENSG00000157077_ENST00000287727|human|control|control (ssRNA)
RNA: GGGAGUUCUACAGUCCGACGAUCGGUAUACUGGUAAUUUCUGAAGUCUGCAAGAAGAUUCAUGAUGGUAUGCCCCGUCUCUCCAAACAAUGGCUUCCGAAAUCUGACACUGAAUAGUGGGCAUGGAUAAAGUCGAUAUUCAGCCAACAGAGGAUUGAGCAUCA
B14: chr7:135832511:135832512:+_ENSMUSG00000042105_ENSMUST00000118605|mus_hu|FALSE|FALSE (ssRNA)
RNA: GGGAGUUCUACAGUCCGACGAUCAUUAAUAUUUACAUCAGCCAAACAUGAUCCCCAGUCAAAAACAUUAUGUCCUUAACAAAAAGCACUUGGCACGUAACAGGCAGUCGGAAAAUGUCAACCCUCCCCCCACCCCCAAUUUUACAACAGAGGAUUGAGCAUCA
B15: chr3:38534408:38534409:+_ENSG00000114739_ENST00000352511|hu_hu|motif|central (ssRNA)
RNA: GGGAGUUCUACAGUCCGACGAUCUUCAAGCAGCAAAACCCCAACUUAGCAGAUCUAAUUUCAAACUUGACACUCAUUUCGGAAAUUACCACAGUAAAAAGGAACAAAGAUCCACUGCAAAUGAAUGAACUAUGAUACAAUGUUCAACAGAGGAUUGAGCAUCA
B16: chr1:219384882:219384883:+_ENSG00000143353_ENST00000366928|hu_mus|motif|central (ssRNA)
RNA: GGGAGUUCUACAGUCCGACGAUCGCUCACUCCUAGAGAUUUCAGUUUUGAGUUUGUCUCCUUGCCCCAAGCAUGCAGAACGGGGUUAUCUGCAGAGCCGUGACACUGGAAGAGCUCAGGGAGCAUGCGGCCACCUUGCUGAAGCAACAGAGGAUUGAGCAUCA
B17: chr5:135912371:135912372:-_ENSMUSG00000039959_ENSMUST00000060311|mus_mus|FALSE|FALSE (ssRNA)
RNA: GGGAGUUCUACAGUCCGACGAUCCAUGUUGUCCAGCUGCCCUGUCAGUCCACUGAUCUCUCUGUACAGGCGUUCAAUCAAGUGGUCCUUCUCGUCCUUGUUCACGCCAUUUUGAUUGUUGAAAUUGAAAGGGUCGCUGCUCAACAACAGAGGAUUGAGCAUCA
B18: 63592093_63593034_1452_3pUTR_ENSMUSG00000025964_ENSMUST00000114107|mouse|control|control (ssRNA)
RNA: GGGAGUUCUACAGUCCGACGAUCCCAAAGUAACUCAGACUGCUUCUCUUAUAAUGGAAUGUCACGCGCGAGAUGAGGUGGACCGCGUCAGCGUGCUGUUUGAUUCGCUGCCGGUACUUGGAGAAGUCAUGUAGCAUCUGCACGCAACAGAGGAUUGAGCAUCA
B19: chr6:136509389:136509390:+_ENSMUSG00000030213_ENSMUST00000032335|mus_mus|motif|central (ssRNA)
RNA: GGGAGUUCUACAGUCCGACGAUCGACAUUACUGUUCACUUUAUUUCCCUCAUCACAGGAGUCUUUACUUUGAAUUUGGUCGGAGUGUUCGUCGUCUUCACUCUUGCCUGGACAAUCAUCACUGUUAUUGCUACUCGGCUCUGUCAACAGAGGAUUGAGCAUCA
B20: chr4:109959894:109959895:-_ENSMUSG00000028546_ENSMUST00000106598|mus_hu|FALSE|FALSE (ssRNA)
RNA: GGGAGUUCUACAGUCCGACGAUCCUUCGACUCUUCUGUUAAAAUUUGCAAAGAUUUCAGAAUAUAUAUUUAAAAUGACUACUAUUGUUAUAUAUAAUUAAAGAUCCACAAAACACAGUGUGGAUGAUUGUAAAGCAAAUCAAUCAACAGAGGAUUGAGCAUCA
B21: 48543412_48543532_713_CDS_ENSG00000177981_ENST00000317697|human|control|control (ssRNA)
RNA: GGGAGUUCUACAGUCCGACGAUCUGUUCCAAGUCCCCUGACUAGCAGAGCCACCAGGCGGGAGAUGGGUGUCUGGCCUAUUAGGUUGAUGACUCUGACCUCUGCGCCAUAAUCCAGAAGGAUGCUGACACUCUCAAGAUUUCCCAACAGAGGAUUGAGCAUCA
B22: chr3:179287964:179287965:+_ENSG00000136518_ENST00000429709|hu_hu|hu_hu_hu_mus_True|28_58 (ssRNA)
RNA: GGGAGUUCUACAGUCCGACGAUCCUUGAGUGGUGAGAUGGCCUCCAUGUUCUCCCUGGGCACGCGGAGGGCAUUGGUAUCUAUGUAGUAGGUGGGCCCGCCCUGCUUGCCUUUAUCACCAUCAAUCUCCAUCAUUGUACUUCCCAACAGAGGAUUGAGCAUCA

The experiment addresses T1, UNK ZnF1-3. As to the kind of experiment: nsRBNS (natural sequence RNA bind-n-seq); RBNS binding buffer (assumed for nsRBNS): 25 mM Tris pH 7.5, 150 mM KCl, 3 mM MgCl2, 0.01% Triton X-100, 500 ug/ml BSA, 20 U/ml SUPERase-In, 4 C; UNK is unkempt and MSI1 is Musashi-1; names of the RNAs are library labels; protein concentration not given here; high values mean tight binding.
B1 gave a binding signal of 0.904 enrichment R.

With B2, the binding signal came to 0.586 enrichment R. With B3 the figure was 0.928 enrichment R; with B4, 0.933 enrichment R. In turn, B5 showed a binding signal of 0.708 enrichment R. Then B6, with 1.07 enrichment R. With B7 the figure was 0.772 enrichment R. For B8, the binding signal came out at 1.26 enrichment R.

B9 showed a binding signal of 1.49 enrichment R. With B10 the figure was 1.73 enrichment R.

The molecule B11 registered a binding signal of 1.18 enrichment R. Then B12, with 0.543 enrichment R. Molecule B13 registered a binding signal of 0.796 enrichment R.

B14 returned a binding signal of 1.96 enrichment R. In turn, B15 gave a binding signal of 1.43 enrichment R. With B16 the figure was 1.39 enrichment R; with B17, 0.71 enrichment R; with B18, 0.74 enrichment R. Molecule B19 displayed a binding signal of 0.317 enrichment R. Then B20, with 2.6 enrichment R; and B21, with 0.859 enrichment R. Then B22, with 0.752 enrichment R.
